Source: the supplement of paper PMC12230231

test system: SIVsab (simian immunodeficiency virus of sabaeus monkeys), single-cycle GFP reporter, in CRFK cells; assay: enrichment among uninfected cells over input (fold); higher = stronger restriction; settings: library: human / rhesus combinations
Experimental: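 Pools of CRFK cells expressing variants of the TRIM5α v1 loop were challenged with the single-cycle reporter, sorted by GFP and sequenced; mean of two replicates.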

With “MASGILVNVKEEVTCPICLELLTQPLSLDCGHSFCQACLTANHKKSMLDKGESSCPVCRISYQPENIRPNRHVANIVEKLREVKLSPEGQKVDHCARHGEKLLLFCQEDGKVICWLCERSQEHRGHHTFLTEEVAREYQVKLQAALEMLRQKQQEAEELEADIREEKASWKTQIQYDKTNVLADFEQLRDILDWEESNELQNLEKEEEDILKSLTNSETEMVQQTQSLRELISDLEHRLQGSVMELLQGVDGVIKRTENVTLKKPETFPKNQRRVFRAPDLKGMLEVFRELTDVRRYWVDVTVAPNNISCAVISEDKRQVSSPKPQIIYQARGTLFTFQSLTNFNYCTGILGSQSITSGKHYWEVDVSKKTAWILGVCAGFQPDAMCNIEKNENYQPKYGYWVIGLEEGVKCSAFQDSSFHTPSVPFIVPLSVIICPDRVGVFLDYEACTVSFFNITNHGFLIYKFSHCSFSQPVFPYLNPRKCGVPMTLCSPSS [human TRIM5α, 330-340 = QARGTLFTFQSLT]” as the sequence, how does the enrichment read?
The enrichment was 0.252 ± 0.064.

For “MASGILVNVKEEVTCPICLELLTQPLSLDCGHSFCQACLTANHKKSMLDKGESSCPVCRISYQPENIRPNRHVANIVEKLREVKLSPEGQKVDHCARHGEKLLLFCQEDGKVICWLCERSQEHRGHHTFLTEEVAREYQVKLQAALEMLRQKQQEAEELEADIREEKASWKTQIQYDKTNVLADFEQLRDILDWEESNELQNLEKEEEDILKSLTNSETEMVQQTQSLRELISDLEHRLQGSVMELLQGVDGVIKRTENVTLKKPETFPKNQRRVFRAPDLKGMLEVFRELTDVRRYWVDVTVAPNNISCAVISEDKRQVSSPKPQIIYQARGTRFPSFVNFNYCTGILGSQSITSGKHYWEVDVSKKTAWILGVCAGFQPDAMCNIEKNENYQPKYGYWVIGLEEGVKCSAFQDSSFHTPSVPFIVPLSVIICPDRVGVFLDYEACTVSFFNITNHGFLIYKFSHCSFSQPVFPYLNPRKCGVPMTLCSPSS [human TRIM5α, 330-340 = QARGTRFPSFV]”, which enrichment is on record?
The enrichment was 0.0935 ± 0.13.

How did the enrichment turn out when “MASGILVNVKEEVTCPICLELLTQPLSLDCGHSFCQACLTANHKKSMLDKGESSCPVCRISYQPENIRPNRHVANIVEKLREVKLSPEGQKVDHCARHGEKLLLFCQEDGKVICWLCERSQEHRGHHTFLTEEVAREYQVKLQAALEMLRQKQQEAEELEADIREEKASWKTQIQYDKTNVLADFEQLRDILDWEESNELQNLEKEEEDILKSLTNSETEMVQQTQSLRELISDLEHRLQGSVMELLQGVDGVIKRTENVTLKKPETFPKNQRRVFRAPDLKGMLEVFRELTDVRRYWVDVTVAPNNISCAVISEDKRQVSSPKPQIIYGARGTRYTFQTFVNFNYCTGILGSQSITSGKHYWEVDVSKKTAWILGVCAGFQPDAMCNIEKNENYQPKYGYWVIGLEEGVKCSAFQDSSFHTPSVPFIVPLSVIICPDRVGVFLDYEACTVSFFNITNHGFLIYKFSHCSFSQPVFPYLNPRKCGVPMTLCSPSS [human TRIM5α, 330-340 = GARGTRYTFQTFV]” was run?
The enrichment was 0.143 ± 0.11.

For “MASGILVNVKEEVTCPICLELLTQPLSLDCGHSFCQACLTANHKKSMLDKGESSCPVCRISYQPENIRPNRHVANIVEKLREVKLSPEGQKVDHCARHGEKLLLFCQEDGKVICWLCERSQEHRGHHTFLTEEVAREYQVKLQAALEMLRQKQQEAEELEADIREEKASWKTQIQYDKTNVLADFEQLRDILDWEESNELQNLEKEEEDILKSLTNSETEMVQQTQSLRELISDLEHRLQGSVMELLQGVDGVIKRTENVTLKKPETFPKNQRRVFRAPDLKGMLEVFRELTDVRRYWVDVTVAPNNISCAVISEDKRQVSSPKPQIIYQARGTRFQTLVNFNYCTGILGSQSITSGKHYWEVDVSKKTAWILGVCAGFQPDAMCNIEKNENYQPKYGYWVIGLEEGVKCSAFQDSSFHTPSVPFIVPLSVIICPDRVGVFLDYEACTVSFFNITNHGFLIYKFSHCSFSQPVFPYLNPRKCGVPMTLCSPSS [human TRIM5α, 330-340 = QARGTRFQTLV]”, which enrichment is on record?
Its enrichment is 3.12 ± 3.5.

Which enrichment does the source give for “MASGILVNVKEEVTCPICLELLTQPLSLDCGHSFCQACLTANHKKSMLDKGESSCPVCRISYQPENIRPNRHVANIVEKLREVKLSPEGQKVDHCARHGEKLLLFCQEDGKVICWLCERSQEHRGHHTFLTEEVAREYQVKLQAALEMLRQKQQEAEELEADIREEKASWKTQIQYDKTNVLADFEQLRDILDWEESNELQNLEKEEEDILKSLTNSETEMVQQTQSLRELISDLEHRLQGSVMELLQGVDGVIKRTENVTLKKPETFPKNQRRVFRAPDLKGMLEVFRELTDVRRYWVDVTVAPNNISCAVISEDKRQVSSPKPQIIYGARGTLFTFPTLVNFNYCTGILGSQSITSGKHYWEVDVSKKTAWILGVCAGFQPDAMCNIEKNENYQPKYGYWVIGLEEGVKCSAFQDSSFHTPSVPFIVPLSVIICPDRVGVFLDYEACTVSFFNITNHGFLIYKFSHCSFSQPVFPYLNPRKCGVPMTLCSPSS [human TRIM5α, 330-340 = GARGTLFTFPTLV]” here?
Its enrichment is 0.396 ± 0.41.

How did the enrichment turn out when “MASGILVNVKEEVTCPICLELLTQPLSLDCGHSFCQACLTANHKKSMLDKGESSCPVCRISYQPENIRPNRHVANIVEKLREVKLSPEGQKVDHCARHGEKLLLFCQEDGKVICWLCERSQEHRGHHTFLTEEVAREYQVKLQAALEMLRQKQQEAEELEADIREEKASWKTQIQYDKTNVLADFEQLRDILDWEESNELQNLEKEEEDILKSLTNSETEMVQQTQSLRELISDLEHRLQGSVMELLQGVDGVIKRTENVTLKKPETFPKNQRRVFRAPDLKGMLEVFRELTDVRRYWVDVTVAPNNISCAVISEDKRQVSSPKPQIIYGAPGTRFTFPSLVNFNYCTGILGSQSITSGKHYWEVDVSKKTAWILGVCAGFQPDAMCNIEKNENYQPKYGYWVIGLEEGVKCSAFQDSSFHTPSVPFIVPLSVIICPDRVGVFLDYEACTVSFFNITNHGFLIYKFSHCSFSQPVFPYLNPRKCGVPMTLCSPSS [human TRIM5α, 330-340 = GAPGTRFTFPSLV]” was run?
The enrichment was 0.182 ± 0.08.

“MASGILVNVKEEVTCPICLELLTQPLSLDCGHSFCQACLTANHKKSMLDKGESSCPVCRISYQPENIRPNRHVANIVEKLREVKLSPEGQKVDHCARHGEKLLLFCQEDGKVICWLCERSQEHRGHHTFLTEEVAREYQVKLQAALEMLRQKQQEAEELEADIREEKASWKTQIQYDKTNVLADFEQLRDILDWEESNELQNLEKEEEDILKSLTNSETEMVQQTQSLRELISDLEHRLQGSVMELLQGVDGVIKRTENVTLKKPETFPKNQRRVFRAPDLKGMLEVFRELTDVRRYWVDVTVAPNNISCAVISEDKRQVSSPKPQIIYQAPGTRYTFQTFTNFNYCTGILGSQSITSGKHYWEVDVSKKTAWILGVCAGFQPDAMCNIEKNENYQPKYGYWVIGLEEGVKCSAFQDSSFHTPSVPFIVPLSVIICPDRVGVFLDYEACTVSFFNITNHGFLIYKFSHCSFSQPVFPYLNPRKCGVPMTLCSPSS [human TRIM5α, 330-340 = QAPGTRYTFQTFT]” was tested. Which enrichment did it give?
Its enrichment is 0.141 ± 0.069.

same assay, conditions: library: insertions and deletions

How did the enrichment turn out when “MASGILVNVKEEVTCPICLELLTQPLSLDCGHSFCQACLTANHKKSMLDKGESSCPVCRISYQPENIRPNRHVANIVEKLREVKLSPEGQKVDHCARHGEKLLLFCQEDGKVICWLCERSQEHRGHHTFLTEEVAREYQVKLQAALEMLRQKQQEAEELEADIREEKASWKTQIQYDKTNVLADFEQLRDILDWEESNELQNLEKEEEDILKSLTNSETEMVQQTQSLRELISDLEHRLQGSVMELLQGVDGVIKRTENVTLKKPETFPKNQRRVFRAPDLKGMLEVFRELTDVRRYWVDVTVAPNNISCAVISEDKRQVSSPKPQIIYGARGTRYQTFVNFNGILGSQSITSGKHYWEVDVSKKTAWILGVCAGFQPDAMCNIEKNENYQPKYGYWVIGLEEGVKCSAFQDSSFHTPSVPFIVPLSVIICPDRVGVFLDYEACTVSFFNITNHGFLIYKFSHCSFSQPVFPYLNPRKCGVPMTLCSPSS [human TRIM5α, 3-codon deletion at 344]” was run?
Its enrichment is 0.394 ± 0.018.

For “MASGILVNVKEEVTCPICLELLTQPLSLDCGHSFCQACLTANHKKSMLDKGESSCPVCRISYQPENIRPNRHVANIVEKLREVKLSPEGQKVDHCARHGEKLLLFCQEDGKVICWLCERSQEHRGHHTFLTEEVAREYQVKLQAALEMLRQKQQEAEELEADIREEKASWKTQIQYDKTNVLADFEQLRDILDWEESNELQNLEKEEEDILKSLTNSETEMVQQTQSLRELISDLEHRLQGSVMELLQGVDGVIKRTENVTLKKPETFPKNQRRVFRAPDLKGMLEVFRELTDVRRYWVDVTVAPNNISCAVISEDKRQVSSPKPQIIYGARGTRYQTVNFNYCTGILGSQSITSGKHYWEVDVSKKTAWILGVCAGFQPDAMCNIEKNENYQPKYGYWVIGLEEGVKCSAFQDSSFHTPSVPFIVPLSVIICPDRVGVFLDYEACTVSFFNITNHGFLIYKFSHCSFSQPVFPYLNPRKCGVPMTLCSPSS [human TRIM5α, 1-codon deletion at 339]”, which enrichment is on record?
Its enrichment is 0.525 ± 0.14.

How did the enrichment turn out when “MASGILVNVKEEVTCPICLELLTQPLSLDCGHSFCQACLTANHKKSMLDKGESSCPVCRISYQPENIRPNRHVANIVEKLREVKLSPEGQKVDHCARHGEKLLLFCQEDGKVICWLCERSQEHRGHHTFLTEEVAREYQVKLQAALEMLRQKQQEAEELEADIREEKASWKTQIQYDKTNVLADFEQLRDILDWEESNELQNLEKEEEDILKSLTNSETEMVQQTQSLRELISDLEHRLQGSVMELLQGVDGVIKRTENVTLKKPETFPKNQRRVFRAPDLKGMLEVFRELTDVRRYWVDVTVAPNNISCAVISEDKRQVSSPYGARGTRYQTFVNFNYCTGILGSQSITSGKHYWEVDVSKKTAWILGVCAGFQPDAMCNIEKNENYQPKYGYWVIGLEEGVKCSAFQDSSFHTPSVPFIVPLSVIICPDRVGVFLDYEACTVSFFNITNHGFLIYKFSHCSFSQPVFPYLNPRKCGVPMTLCSPSS [human TRIM5α, 5-codon deletion at 324]” was run?
The enrichment was 0.879 ± 0.023.

How did the enrichment turn out when “MASGILVNVKEEVTCPICLELLTQPLSLDCGHSFCQACLTANHKKSMLDKGESSCPVCRISYQPENIRPNRHVANIVEKLREVKLSPEGQKVDHCARHGEKLLLFCQEDGKVICWLCERSQEHRGHHTFLTEEVAREYQVKLQAALEMLRQKQQEAEELEADIREEKASWKTQIQYDKTNVLADFEQLRDILDWEESNELQNLEKEEEDILKSLTNSETEMVQQTQSLRELISDLEHRLQGSVMELLQGVDGVIKRTENVTLKKPETFPKNQRRVFRAPDLKGMLEVFRELTDVRRYWVDVTVAPNNISCAVISEDKRQVSSPKPQIIYGARGTRYQTFARGTRYQTFVNFNYCTGILGSQSITSGKHYWEVDVSKKTAWILGVCAGFQPDAMCNIEKNENYQPKYGYWVIGLEEGVKCSAFQDSSFHTPSVPFIVPLSVIICPDRVGVFLDYEACTVSFFNITNHGFLIYKFSHCSFSQPVFPYLNPRKCGVPMTLCSPSS [human TRIM5α, 9-codon duplication at 331]” was run?
The enrichment was 0.581 ± 0.18.

How did the enrichment turn out when “MASGILVNVKEEVTCPICLELLTQPLSLDCGHSFCQACLTANHKKSMLDKGESSCPVCRISYQPENIRPNRHVANIVEKLREVKLSPEGQKVDHCARHGEKLLLFCQEDGKVICWLCERSQEHRGHHTFLTEEVAREYQVKLQAALEMLRQKQQEAEELEADIREEKASWKTQIQYDKTNVLADFEQLRDILDWEESNELQNLEKEEEDILKSLTNSETEMVQQTQSLRELISDLEHRLQGSVMELLQGVDGVIKRTENVTLKKPETFPKNQRRVFRAPDLKGMLEVFRELTDVRRYWVDVTVAPNNISCAVISEDKRQVSSPKPQIIYGARGTRGTRYQTFVNFNYCTGILGSQSITSGKHYWEVDVSKKTAWILGVCAGFQPDAMCNIEKNENYQPKYGYWVIGLEEGVKCSAFQDSSFHTPSVPFIVPLSVIICPDRVGVFLDYEACTVSFFNITNHGFLIYKFSHCSFSQPVFPYLNPRKCGVPMTLCSPSS [human TRIM5α, 3-codon duplication at 333]” was run?
Its enrichment is 0.56 ± 0.037.

± gives the standard deviation of the averaged measurements. Restriction of a single-cycle SIVsab GFP reporter by TRIM5α v1-loop variants in CRFK cells. Human variants: read share among cells still uninfected after two challenges over input, higher = gained restriction. Rhesus variants: share among infected cells over input, higher = lost restriction. Reporter dose not given per row. No active / inactive call per row; the paper calls a change when both replicates lie above its controls (mean + 2 SD of stop or wild-type variants, or the top frameshift score). Residues outside the varied loop are taken from Swiss-Prot. The paper reads the human single-substitution scores as noise; they and the rhesus combinations repeat poorly (rank correlation 0.3 to 0.4), indel scores repeat only for the top variants, rhesus substitutions well (0.9).
